This passage reports cell count results from the supplement of paper PMC4604168 (melanoma cell lines).

Some of the results follow. Many values rest on one well or one pass, so single values are uncertain.
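Note: cells treated in 1,536-well plates, then fixed and DAPI-stained, with nuclei counted from automated high-throughput microscope images.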

For one test, the system named is WM3619. As to the kind of experiment: cell count relative to DMSO control; melanoma cells; higher = more viable cells. Particulars: library dose: standard library concentration; 72 h.
As for `CC[C@]1(O)C[C@H]2CN(CCc3c([nH]c4ccccc34)[C@@](C(=O)OC)(c3cc4c(cc3OC)N(C=O)[C@H]3[C@@](O)(C(=O)OC)[C@H](OC(C)=O)[C@]5(CC)C=CCN6CC[C@]43[C@@H]65)C2)C1` [vincristine] + O=C(CCCCCCC(=O)Nc1ccccc1)NO [vorinostat] (first compound 0.0005 µM, partner dose 0.4 µM), the cell count was determined as 57.3%.
Same read-out and setting: with `N#CC[C@H](C1CCCC1)n1cc(-c2ncnc3[nH]ccc23)cn1` [ruxolitinib] + O=C1NC(=O)/C(=C/c2ccc(-c3ccc(F)cc3O)o2)S1 [AS252424] (first compound 5 µM, partner dose 5 µM) the figure was 85.2%; with `CC[C@]1(O)C[C@H]2CN(CCc3c([nH]c4ccccc34)[C@@](C(=O)OC)(c3cc4c(cc3OC)N(C=O)[C@H]3[C@@](O)(C(=O)OC)[C@H](OC(C)=O)[C@]5(CC)C=CCN6CC[C@]43[C@@H]65)C2)C1` [vincristine] + O=C1NC(=O)/C(=C/c2ccc(-c3ccc(F)cc3O)o2)S1 [AS252424] (first compound 0.0005 µM, partner dose 5 µM), 38.3%; with `N#CC[C@H](C1CCCC1)n1cc(-c2ncnc3[nH]ccc23)cn1` [ruxolitinib] + C[C@@H](Oc1cc(-c2cnn(C3CCNCC3)c2)cnc1N)c1c(Cl)ccc(F)c1Cl [Crizotinib] (first compound 5 µM, partner dose 1 µM), 80.2%.
Same read-out and setting: as for `Cc1cc(Nc2cc(N3CCN(C)CC3)nc(Sc3ccc(NC(=O)C4CC4)cc3)n2)n[nH]1` [Tozasertib] + NCC(=O)Nc1ccc(-n2nc(C(F)(F)F)cc2-c2ccc3c(ccc4ccccc43)c2)cc1 [OSU03012] (first compound 0.03 µM, partner dose 5 µM), the figure is 86.3%; as for `Cc1cc(Nc2cc(N3CCN(C)CC3)nc(Sc3ccc(NC(=O)C4CC4)cc3)n2)n[nH]1` [Tozasertib] + Cc1cc([N+](=O)[O-])ccc1NS(=O)(=O)c1cc(Cl)ccc1Cl [FH535] (first compound 0.03 µM, partner dose 5 µM), 72.5%; as for `N#CC[C@H](C1CCCC1)n1cc(-c2ncnc3[nH]ccc23)cn1` [ruxolitinib] + CCN(CC)CCCCNc1ncc2cc(-c3cc(OC)cc(OC)c3)c(NC(=O)NC(C)(C)C)nc2n1 [PD173074] (first compound 5 µM, partner dose 0.5 µM), 101%.
In turn, `CC[C@]1(O)C[C@H]2CN(CCc3c([nH]c4ccccc34)[C@@](C(=O)OC)(c3cc4c(cc3OC)N(C=O)[C@H]3[C@@](O)(C(=O)OC)[C@H](OC(C)=O)[C@]5(CC)C=CCN6CC[C@]43[C@@H]65)C2)C1` [vincristine] + NCC(=O)Nc1ccc(-n2nc(C(F)(F)F)cc2-c2ccc3c(ccc4ccccc43)c2)cc1 [OSU03012] (first compound 0.0005 µM, partner dose 5 µM) came in with a cell count of 77.6%.
Molecule `N#CC[C@H](C1CCCC1)n1cc(-c2ncnc3[nH]ccc23)cn1` [ruxolitinib] + Cc1nc(Nc2ncc(C(=O)Nc3c(C)cccc3Cl)s2)cc(N2CCN(CCO)CC2)n1 [dasatanib] (first compound 5 µM, partner dose 0.02 µM) came in with a cell count of 61.6%.
The same measure, in the same setting: with `CC[C@]1(O)C[C@H]2CN(CCc3c([nH]c4ccccc34)[C@@](C(=O)OC)(c3cc4c(cc3OC)N(C=O)[C@H]3[C@@](O)(C(=O)OC)[C@H](OC(C)=O)[C@]5(CC)C=CCN6CC[C@]43[C@@H]65)C2)C1` [vincristine] + O=C(O)c1ccc(-c2c[nH]c3ncc(-c4ccccc4)cc23)cc1C1CCCC1 [GSK650394] (first compound 0.0005 µM, partner dose 0.8 µM) the figure was 84.7%.

A further test has as its system WM451Lu. The description is as above. Particulars: library dose: standard library concentration; 72 h.
Consider `Cc1cc(Nc2cc(N3CCN(C)CC3)nc(Sc3ccc(NC(=O)C4CC4)cc3)n2)n[nH]1` [Tozasertib] + O=C(CCCCCCC(=O)Nc1ccccc1)NO [vorinostat] (first compound 0.03 µM, partner dose 0.4 µM), for which the cell count came out at 65.9%.
The same measure, in the same setting: with `Cc1cc(Nc2cc(N3CCN(C)CC3)nc(Sc3ccc(NC(=O)C4CC4)cc3)n2)n[nH]1` [Tozasertib] + Nc1nc(F)nc2c1ncn2[C@@H]1O[C@H](CO)[C@@H](O)[C@@H]1O [fludarabine] (first compound 0.03 µM, partner dose 1 µM) the figure was 92.1%; with `N#CC[C@H](C1CCCC1)n1cc(-c2ncnc3[nH]ccc23)cn1` [ruxolitinib] + C=CCNC1=C2C[C@@H](C)C[C@H](OC)[C@H](O)[C@@H](C)/C=C(\C)[C@H](OC(N)=O)[C@@H](OC)/C=C\C=C(/C)C(=O)NC(=CC1=O)C2=O [Tanespimycin] (first compound 5 µM, partner dose 0.01 µM), 82.3%; with `N#CC[C@H](C1CCCC1)n1cc(-c2ncnc3[nH]ccc23)cn1` [ruxolitinib] + CO[C@@H]1[C@H](N(C)C(=O)c2ccccc2)C[C@H]2O[C@]1(C)n1c3ccccc3c3c4c(c5c6ccccc6n2c5c31)C(=O)NC4 [Midostaurin] (first compound 5 µM, partner dose 0.4 µM), 81.4%.
`Cc1cc(Nc2cc(N3CCN(C)CC3)nc(Sc3ccc(NC(=O)C4CC4)cc3)n2)n[nH]1` [Tozasertib] + COc1cc2c(Oc3ccc4[nH]c(C)cc4c3F)ncnc2cc1OCCCN1CCCC1 [cediranib] (first compound 0.03 µM, partner dose 2 µM) showed a cell count of 80.3%.
On the same count and under the same terms, with `N#CC[C@H](C1CCCC1)n1cc(-c2ncnc3[nH]ccc23)cn1` [ruxolitinib] + O=C(/C=C/c1cccnc1)NCCCCC1CCN(C(=O)c2ccccc2)CC1 [FK866] (first compound 5 µM, partner dose 0.05 µM) the figure was 86.5%.
The same measure, in the same setting: as for `CC[C@]1(O)C[C@H]2CN(CCc3c([nH]c4ccccc34)[C@@](C(=O)OC)(c3cc4c(cc3OC)N(C=O)[C@H]3[C@@](O)(C(=O)OC)[C@H](OC(C)=O)[C@]5(CC)C=CCN6CC[C@]43[C@@H]65)C2)C1` [vincristine] + COc1cc(Nc2ncc(F)c(Nc3ccc4c(n3)NC(=O)C(C)(C)O4)n2)cc(OC)c1OC [Tamatinib] (first compound 0.0005 µM, partner dose 2 µM), the figure is 26.7%; as for `N#CC[C@H](C1CCCC1)n1cc(-c2ncnc3[nH]ccc23)cn1` [ruxolitinib] + CC1(C)NC(=O)N(c2ccc([N+](=O)[O-])c(C(F)(F)F)c2)C1=O [nilutamide] (first compound 5 µM, partner dose 5 µM), 74.2%; as for `CC[C@]1(O)C[C@H]2CN(CCc3c([nH]c4ccccc34)[C@@](C(=O)OC)(c3cc4c(cc3OC)N(C=O)[C@H]3[C@@](O)(C(=O)OC)[C@H](OC(C)=O)[C@]5(CC)C=CCN6CC[C@]43[C@@H]65)C2)C1` [vincristine] + CC1(C)NC(=O)N(c2ccc([N+](=O)[O-])c(C(F)(F)F)c2)C1=O [nilutamide] (first compound 0.0005 µM, partner dose 5 µM), 37%.
Same read-out and setting: with `N#CC[C@H](C1CCCC1)n1cc(-c2ncnc3[nH]ccc23)cn1` [ruxolitinib] + CC(C)C[C@H](NC(=O)[C@H](Cc1ccccc1)NC(=O)c1cnccn1)B(O)O [Bortezomib] (first compound 5 µM, partner dose 0.005 µM) the figure was 22.2%.
The molecule `CC[C@]1(O)C[C@H]2CN(CCc3c([nH]c4ccccc34)[C@@](C(=O)OC)(c3cc4c(cc3OC)N(C=O)[C@H]3[C@@](O)(C(=O)OC)[C@H](OC(C)=O)[C@]5(CC)C=CCN6CC[C@]43[C@@H]65)C2)C1` [vincristine] + COC(=O)c1sccc1S(=O)(=O)Nc1ccc(Nc2ccccc2)cc1OC [GSK0660] (first compound 0.0005 µM, partner dose 5 µM) yielded a cell count of 29.1%.
Consider `N#CC[C@H](C1CCCC1)n1cc(-c2ncnc3[nH]ccc23)cn1` [ruxolitinib] + CS(=O)(=O)CCNCc1ccc(-c2ccc3ncnc(Nc4ccc(OCc5cccc(F)c5)c(Cl)c4)c3c2)o1 [lapatinib] (first compound 5 µM, partner dose 4 µM), for which the cell count stood at 114%.
Same read-out and setting: with `Cc1cc(Nc2cc(N3CCN(C)CC3)nc(Sc3ccc(NC(=O)C4CC4)cc3)n2)n[nH]1` [Tozasertib] + C[C@]1(c2nc3c(C(N)=O)cccc3[nH]2)CCCN1 [Veliparib] (first compound 0.03 µM, partner dose 7 µM) the figure was 70.3%.
On the same count and under the same terms, with `N#CC[C@H](C1CCCC1)n1cc(-c2ncnc3[nH]ccc23)cn1` [ruxolitinib] + Cn1cncc1[C@@](N)(c1ccc(Cl)cc1)c1ccc2c(c1)c(-c1cccc(Cl)c1)cc(=O)n2C [tipifarnib] (first compound 5 µM, partner dose 0.05 µM) the figure was 67%; with `CC[C@]1(O)C[C@H]2CN(CCc3c([nH]c4ccccc34)[C@@](C(=O)OC)(c3cc4c(cc3OC)N(C=O)[C@H]3[C@@](O)(C(=O)OC)[C@H](OC(C)=O)[C@]5(CC)C=CCN6CC[C@]43[C@@H]65)C2)C1` [vincristine] + Cc1cc(Nc2cc(N3CCN(C)CC3)nc(/C=C/c3ccccc3)n2)n[nH]1 [ENMD2076] (first compound 0.0005 µM, partner dose 0.2 µM), 56.3%.
On to `Cc1cc(Nc2cc(N3CCN(C)CC3)nc(Sc3ccc(NC(=O)C4CC4)cc3)n2)n[nH]1` [Tozasertib] + CC(C)CCN1c2nc(Nc3cc(F)c(O)c(F)c3)ncc2N(C)C(=O)C1C [BID1870] (first compound 0.03 µM, partner dose 1 µM), for which the cell count was 74.6%.
